# Hit rate of the full screen: of about 360,000 compounds, about 660 (0.18%) were called active. Inconclusive results, whose numbers are uncertain, are shown with a selection of clear calls. Calls come from the whole dose curve; as a rule, active = well fitted inhibition curve with a large enough effect; inconclusive = small, poorly fitted or top-dose-only effect; inactive = no such curve, though single readings can be large or run the other way. Potencies of inconclusive entries are left out as doubtful fits.
# Molecular target: Rap guanine nucleotide exchange factor 4 (Homo sapiens) (UniProt Q8WZA2)
# UniProt Q8WZA2, sequence (Q8WZA2 whole entry, looked up): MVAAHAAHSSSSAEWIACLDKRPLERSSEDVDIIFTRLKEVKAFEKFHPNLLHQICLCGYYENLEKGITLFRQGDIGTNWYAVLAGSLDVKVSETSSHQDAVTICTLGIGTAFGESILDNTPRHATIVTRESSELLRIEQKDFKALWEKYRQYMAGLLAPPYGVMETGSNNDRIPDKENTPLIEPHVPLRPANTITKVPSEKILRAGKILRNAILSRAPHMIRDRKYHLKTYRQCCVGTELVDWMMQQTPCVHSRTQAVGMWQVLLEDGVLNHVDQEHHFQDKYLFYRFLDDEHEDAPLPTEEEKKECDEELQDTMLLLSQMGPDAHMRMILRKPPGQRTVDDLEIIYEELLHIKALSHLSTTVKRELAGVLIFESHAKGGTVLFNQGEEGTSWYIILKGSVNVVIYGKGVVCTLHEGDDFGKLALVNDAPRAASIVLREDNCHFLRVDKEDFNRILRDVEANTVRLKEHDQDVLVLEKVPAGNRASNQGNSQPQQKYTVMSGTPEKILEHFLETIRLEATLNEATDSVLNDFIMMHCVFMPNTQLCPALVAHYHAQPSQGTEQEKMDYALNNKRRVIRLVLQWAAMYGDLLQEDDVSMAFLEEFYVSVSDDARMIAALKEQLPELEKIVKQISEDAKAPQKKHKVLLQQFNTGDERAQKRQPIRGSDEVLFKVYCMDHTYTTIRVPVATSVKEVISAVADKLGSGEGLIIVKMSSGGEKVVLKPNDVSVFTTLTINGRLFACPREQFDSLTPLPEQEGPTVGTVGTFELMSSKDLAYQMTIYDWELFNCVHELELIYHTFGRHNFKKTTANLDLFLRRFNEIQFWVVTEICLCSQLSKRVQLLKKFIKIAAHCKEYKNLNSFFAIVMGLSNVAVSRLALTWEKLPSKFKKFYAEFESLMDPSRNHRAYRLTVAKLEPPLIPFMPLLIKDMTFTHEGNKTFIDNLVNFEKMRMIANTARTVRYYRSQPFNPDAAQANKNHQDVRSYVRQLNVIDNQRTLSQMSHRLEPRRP
# Experiment: qHTS for Antagonist of cAMP-regulated guanine nucleotide exchange factor 2 (EPAC2): primary screen; note: nearly all actives have a fitted effect of over 45% in size
# Details: EPAC2 GEF exchange of Rap1B-BODIPY-GDP, fluorescence; activity, negative = inhibition: at 114 µM (top of the series) unless noted
# % is set by controls: 0 for no effect and ±100 for the full control effect; potency is the fitted concentration of half-maximal effect; tags give direction and shape of the fitted curve.
Compound,Potency,"activity, negative = inhibition"
Fc1cc(F)cc(-c2c(-c3ccccc3)ncc3ccc(F)cc23)c1,"inconclusive [inhibitor, full curve]",–
COc1cccc(CN(C)C(=O)CCNC(=O)c2ccc(Br)cc2)c1,"inconclusive [inhibitor, partial curve, poor fit]",–
CC(C)CNC(=O)COC(=O)c1ccc(Cl)c(S(=O)(=O)N2CCc3ccccc32)c1,"inconclusive [inhibitor, full curve]",–
Cc1ccc(-n2ncc3c2CC(C)(C)CC3NC(=O)C2CCOCC2)cc1 (configuration not stated),–,inactive: 6.41%
COc1ccc(Oc2ccc(N/C=C/C(=O)C(C)(C)C)cc2)cc1,"inconclusive [inhibitor, single point]",–
COC(=O)C1=C(C)N(CC2CC2)C(=O)N[C@H]1c1ccc(Br)cc1,"inconclusive [inhibitor, partial curve]",–
CC(/C=C1\SC(=S)N(C(C(=O)O)C(C)C)C1=O)=C\c1ccccc1 (configuration not stated),"inconclusive [inhibitor, partial curve]",–
CSc1ccccc1NC(=O)CN1c2ccccc2CC1C (configuration not stated),"inconclusive [inhibitor, full curve]",–
OC(c1ccccc1)(c1ccccc1)c1ccn[nH]1,–,inconclusive: -13.2% [inhibitor]
Cn1c(O)c(N=Nc2ccc(F)cc2)c2ccccc21,"inconclusive [inhibitor, single point]",–
COc1ccccc1NC(=O)C1=C(C)NC(SCC(=O)c2ccccc2)=C(C#N)C1c1ccco1 (configuration not stated),"inconclusive [inhibitor, single point]",–
O=C(CCC(=O)n1ncc2ccccc21)NCc1ccccc1Cl,–,inactive: -5.43%
CC(C)C[C@H]1CN(CCCC[C@H]2CNC(=O)C(=O)N2CCc2ccccc2)C(=O)C(=O)N1CCC1CCCCC1,–,inactive: 2.75%
CC1CN(C(=O)CCC(=O)NCc2ccc(F)cc2)c2ccccc2S1 (configuration not stated),"inconclusive [inhibitor, partial curve]",–
Cc1cc(Cl)c2oc(C(=O)N3CCN(c4cnccn4)CC3)c(C)c2c1,"inconclusive [inhibitor, partial curve]",–
Cc1nnc2ccc(-c3cccc(NS(C)(=O)=O)c3)nn12,"inconclusive [inhibitor, single point]",–
CCOC(=O)c1cc2c(ccn2C)n1CC(=O)N1CCN(c2cccc(C(F)(F)F)c2)CC1,"inconclusive [inhibitor, full curve]",–
Cc1ccc(NS(=O)(=O)c2c(C)nc3sccn3c2=O)cc1,–,inactive: -15%
CC1(C)CC(=O)C=C(c2ccc(F)cc2OCc2ccccc2)C1,"inconclusive [inhibitor, full curve]",–
CCOC(=O)c1c(N)sc(C(O)(C(F)(F)F)C(F)(F)F)c1-c1ccc(F)cc1,"inconclusive [inhibitor, partial curve]",–
CCOC(=O)C1=C(C)NC(C)=C(C(=O)OCC)C1c1ccc(Br)o1,"inconclusive [inhibitor, single point]",–

Compound,Potency,"activity, negative = inhibition"
CC1CCN(c2nc3c(c(=O)[nH]c(=O)n3C)n2Cc2ccccc2Cl)CC1,"inconclusive [inhibitor, full curve]",–
Nc1cc2nc[nH]c2cc1N,–,inactive: 0.721%
COc1ccc(-n2nc(N)c(C(N)=O)n2)cc1,"inconclusive [inhibitor, partial curve]",–
COC(=O)C1=CN(Cc2cccs2)C=C(C(=O)OC)C1c1cccc(O)c1,active: 50.1 µM,–
COc1cc(OC)cc(-c2c(-c3ccsc3)c3cc(Br)ccc3n2C)c1,"inconclusive [inhibitor, partial curve]",–
CC1CCN(C(=O)COc2ccccc2F)CC1,"inconclusive [inhibitor, single point]",–
C[C@@H]1CN([C@@H](C)CO)S(=O)(=O)c2ccc(Br)cc2O[C@H]1CN(C)Cc1ccccc1F,"inconclusive [inhibitor, partial curve]",–
Cc1cn([C@H]2C[C@H](O)[C@@H](/C=C/C(=O)NCc3ccco3)O2)c(=O)[nH]c1=O,"inconclusive [inhibitor, single point]",–
COC(=O)C1(Cc2cc(-c3cccc(Br)c3)no2)CCN(C(=O)OC(C)(C)C)CC1,"inconclusive [inhibitor, single point]",–
Cc1cc2oc(=O)cc(CN3CCCC3)c2cc1Cl,"inconclusive [inhibitor, single point]",–
CCCCCC(=O)N1C[C@H](n2cc(COC(=O)c3ccccc3)nn2)[C@@H](O)C[C@@H]1c1ccc(C)cc1,–,inactive: -21.5%
O=C(c1ccccc1)c1ccsc1C(=O)c1ccccc1,"inconclusive [inhibitor, partial curve, poor fit]",–
COC(=O)C1CC(c2ccccc2)N(c2ccccc2)O1 (configuration not stated),"inconclusive [inhibitor, partial curve]",–
COc1cccc(OCC(=O)Nc2ccccc2-c2ccccc2)c1,"inconclusive [inhibitor, full curve]",–
Cc1cc(C)c(S(=O)(=O)Nc2ccc3[nH]c(=O)[nH]c3c2)c(C)c1,"inconclusive [inhibitor, partial curve]",–
Cc1ncn(-c2ccccc2)c1-c1ccccc1,"inconclusive [inhibitor, single point]",–
COc1cc(/C=C(/C#N)C(=O)Nc2ccc(Cl)cc2)ccc1Oc1nc(Cl)ncc1F,"inconclusive [inhibitor, partial curve]",–
OCCC1CN(CCCn2cccn2)CCN1C1CCCCC1 (configuration not stated),–,inactive: 25.6%
CCC1Sc2ccc(S(=O)(=O)CCC(=O)Nc3ccc(OC(F)(F)F)cc3)cc2NC1=O (configuration not stated),–,inactive: 1.72%
CC(C)COC(=O)N1CCCCC1c1cc(C(=O)NCc2ccccc2)no1 (configuration not stated),"inconclusive [inhibitor, partial curve]",–
CSc1ccccc1NC(=O)CN(C)Cc1cccc(Cl)c1,"inconclusive [inhibitor, full curve]",–

# Source: PubChem BioAssay AID720708 (National Center for Advancing Translational Sciences (NCATS), 2013)
